This data set concerns NCI-H322M. Particulars: 48-hour incubation; for CC50: read-out: LC50, NCI-H322M, Lung cancer.

Where only a bound is given, the exact number is not on record here.

What is called GI50 is the concentration giving 50% growth inhibition. `CCCCCCCCCCCCCCCCCCOC(COP(=O)(O)OCC1OC(n2cc(F)c(=O)[nH]c2=O)CC1O)COP(=O)(O)OCC1OC(n2ccc(N)nc2=O)C(O)C1O` (racemic) [NSC 698688-A/1, arabinocytidylyl-(5′→1)-2-O-octadecyl-rac-glycerylyl-(3→5′)-5-fluoro-2′-deoxyuridine]: it took 35.6 µM to inhibit growth by half (GI50) and the CC50 was above 100 µM.
Turning to `Nc1ccn(C2CCC(COP(=O)(O)OCC(O)COP(=O)(O)OCC3OC(n4cc(F)c(=O)[nH]c4=O)CC3O)O2)c(=O)n1` (racemic) [NSC 704533, 2′,3′-didesoxycytidylyl-(5′→1)-racglycerylyl-(3→5′)-5-fluoro-2′-desoxyuridine], the GI50 is 1.95 µM and the CC50 was above 100 µM.

These data come from patent US6787525B1, “Glyceryl nucleotides, method for the production thereof and their use” (priority 1998, dated 2004).
